Measured values: PubChem BioAssay (Tox21)
The inconclusive results got no clear call from the source; some entries with a clear call stand among them for comparison. A call without a number means that no potency is given here. For part of these data: Potencies beside an inconclusive call are fits to weak or partial responses and may not hold up. Activity calls are given as the source filed them. Unless noted, the call rests on the fitted dose curve.

Tests used:
[1] = qHTS assay for small molecule agonists of the antioxidant response element (ARE) signaling pathway (AID 743202; active means well fitted activation curve with a large enough effect in the signal ratio in the repeat runs, not every such curve was filed as active; inconclusive means weak or mixed curves, or effect the other way; inactive means no such curve, though single readings can be large or run the other way; the % refers to the signal ratio; further: potency means the concentration at half of the fitted maximal effect); details: HepG2 ARE-bla reporter, beta-lactamase FRET, 16 h; activation: at 73.3 µM (top of the series) unless noted
In short: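 Following a 16 h, 37 C exposure of reporter HepG2 cells (ARE-driven beta-lactamase, 2,000 cells/well) to compounds, FRET substrate was applied for 2 h at room temperature and fluorescence intensity recorded.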

[2] = target: Vitamin D3 receptor (Homo sapiens) (UniProt P11473); assay: qHTS assay to identify small molecule antagonists of the vitamin D receptor (VDR) signaling pathway (AID 743223; active means well fitted inhibition curve with a large enough effect in the signal ratio in the repeat runs, not every such curve was filed as active; inconclusive means weak or mixed curves, or effect the other way; inactive means no such curve, though single readings can be large or run the other way; the % refers to the signal ratio; further: potency means the concentration at half of the fitted maximal effect); details: VDR-UAS-bla HEK293T, beta-lactamase FRET ratio, 16 h; activity change, negative = inhibition: at 61 µM (top of the series) unless noted
In short: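 VDR-bla cells were treated with compound plus 3 nM final 1alpha,25-dihydroxyvitamin D3 for 16 h at 37C. Beta-lactamase reporter read by B/G FRET substrate fluorescence after 2 h at room temperature. qHTS format.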

[3] = qHTS assay to identify small molecule antagonists of the vitamin D receptor (VDR) signaling pathway - cell viability counter screen (AID 743225; active means well fitted cell-killing curve with a large enough effect in the repeat runs; inconclusive means weak or mixed curves, or effect the other way; inactive means no such curve, though single readings can be large or run the other way; further: nearly all actives have a fitted effect of over 50% in size; further: potency means the concentration at half of the fitted maximal effect); details: VDR-bla HEK293T viability, CellTiter-Glo luminescence, 16 h; viability change, negative = cytotoxic: at 61 µM (top of the series) unless noted
In short: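 VDR-UAS-bla HEK 293T cells were plated and incubated 4 h at 37C, then dosed with compound plus 3 nM (final) 1-alpha,25-dihydroxyvitamin D3 for 16 h. After the 2 h beta-lactamase read, viability in the same wells was read as CellTiter-Glo luminescence after 30 min at room temperature.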

[4] = qHTS assay to identify small molecule agonists of the AP-1 signaling pathway (AID 1159526); details: ME-180 (cervical carcinoma) AP-1-bla reporter, beta-lactamase FRET ratio, 5 h; activation: at 76.8 µM (top of the series) unless noted; further: potency means the concentration at half of the fitted maximal effect
[5] = target: Vitamin D3 receptor (Homo sapiens) (UniProt P11473); assay: qHTS assay to identify small molecule agonists of the vitamin D receptor (VDR) signaling pathway (AID 743222); details: HEK293T VDR-UAS-bla, beta-lactamase FRET ratio, 16 h; activation: at 63.5 µM (top of the series) unless noted; further: potency means the concentration at half of the fitted maximal effect
In short: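 Following 4 h attachment at 37C, VDR-bla cells (2,000 per well) received DMSO-dissolved compounds or controls. After 16 h incubation, LiveBLAzer B/G FRET substrate was added and fluorescence read 2 h later at room temperature.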

[6] = qHTS assay to identify small molecule antagonists of the farnesoid-X-receptor (FXR) signaling pathway - cell viability counter screen (AID 743221; active means well fitted cell-killing curve with a large enough effect in the repeat runs, not every such curve was filed as active; inconclusive means weak or mixed curves, or effect the other way; inactive means no such curve, though single readings can be large or run the other way; further: nearly all actives have a fitted effect of over 50% in size; further: potency means the concentration at half of the fitted maximal effect); details: FXR-bla HEK293T viability, CellTiter-Glo luminescence, 16 h; activity change, negative = cytotoxicity: at 62.6 µM (top of the series) unless noted
In short: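 GeneBLAzer FXR-UAS-bla HEK 293T cells, compound plus chenodeoxycholic acid (50 uM final), 16 h at 37 C. CellTiter-Glo added to the same wells after the beta-lactamase read; luminescence read after 30 min at room temperature as viability.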

[7] = target: Bile acid receptor (Homo sapiens) (UniProt Q96RI1); assay: qHTS assay to identify small molecule agonists of the farnesoid-X-receptor (FXR) signaling pathway (AID 743220; active means well fitted activation curve with a large enough effect in the signal ratio in the repeat runs, not every such curve was filed as active; inconclusive means weak or mixed curves, or effect the other way; the % refers to the signal ratio); details: HEK293T FXR-UAS-bla, beta-lactamase FRET ratio, 16 h; activation: at 62.6 µM (top of the series)
In short: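 FXR-UAS-bla HEK 293T cells carrying a UAS-driven beta-lactamase reporter were plated for 5 h at 37C/5% CO2, then exposed to DMSO-dissolved Tox21 10K compounds for 16 h at 37C. A LiveBLAzer B/G FRET substrate was loaded for 2 h at room temperature before fluorescence reading.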

[8] = qHTS assay to identify small molecule agonists of the vitamin D receptor (VDR) signaling pathway - cell viability counter screen (AID 743224; active means well fitted cell-killing curve with a large enough effect in the repeat runs; inconclusive means weak or mixed curves, or effect the other way; inactive means no such curve, though single readings can be large or run the other way; further: nearly all actives have a fitted effect of over 50% in size; further: potency means the concentration at half of the fitted maximal effect); details: VDR-bla HEK293T viability, CellTiter-Glo luminescence, 16 h; activity change, negative = cytotoxicity: at 62.6 µM (top of the series)
In short: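 In parallel with the bla FRET readout, cytotoxicity toward VDR-bla cells after 16 h compound exposure was assessed by CellTiter-Glo, with luminescence recorded after a 30 min room-temperature incubation.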

[9] = qHTS assay to identify small molecule agonists of the farnesoid-X-receptor (FXR) signaling pathway - cell viability counter screen (AID 743218; active means well fitted cell-killing curve with a large enough effect in the repeat runs; inconclusive means weak or mixed curves, or effect the other way; inactive means no such curve, though single readings can be large or run the other way; further: nearly all actives have a fitted effect of over 45% in size; further: potency means the concentration at half of the fitted maximal effect); details: FXR-bla HEK293T viability, CellTiter-Glo luminescence, 16 h; viability change, negative = cytotoxic: at 62.6 µM (top of the series) unless noted
In short: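 Readout: CellTiter-Glo luminescence, 30 min RT, multiplexed after the FXR-bla FRET reading. HEK 293T FXR-UAS-bla cells received compound 5 h post-plating and were incubated 16 h at 37 C.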
Tags describe the fitted curve by direction and shape or compound fluorescence and quenching.

Chain of UniProt P11473 (P11473 whole entry, looked up): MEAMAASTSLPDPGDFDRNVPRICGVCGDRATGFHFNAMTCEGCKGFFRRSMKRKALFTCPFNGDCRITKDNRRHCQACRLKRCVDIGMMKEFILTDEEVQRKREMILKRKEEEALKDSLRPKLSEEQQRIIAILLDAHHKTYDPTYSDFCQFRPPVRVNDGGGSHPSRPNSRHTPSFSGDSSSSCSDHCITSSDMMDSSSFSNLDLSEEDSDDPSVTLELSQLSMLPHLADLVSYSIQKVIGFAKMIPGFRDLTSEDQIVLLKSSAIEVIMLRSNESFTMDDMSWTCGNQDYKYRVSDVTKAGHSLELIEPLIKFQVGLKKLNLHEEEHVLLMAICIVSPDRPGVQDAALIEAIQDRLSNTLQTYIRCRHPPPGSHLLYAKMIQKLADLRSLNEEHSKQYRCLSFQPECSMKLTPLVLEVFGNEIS
Chain of UniProt Q96RI1 (Q96RI1 whole entry, looked up): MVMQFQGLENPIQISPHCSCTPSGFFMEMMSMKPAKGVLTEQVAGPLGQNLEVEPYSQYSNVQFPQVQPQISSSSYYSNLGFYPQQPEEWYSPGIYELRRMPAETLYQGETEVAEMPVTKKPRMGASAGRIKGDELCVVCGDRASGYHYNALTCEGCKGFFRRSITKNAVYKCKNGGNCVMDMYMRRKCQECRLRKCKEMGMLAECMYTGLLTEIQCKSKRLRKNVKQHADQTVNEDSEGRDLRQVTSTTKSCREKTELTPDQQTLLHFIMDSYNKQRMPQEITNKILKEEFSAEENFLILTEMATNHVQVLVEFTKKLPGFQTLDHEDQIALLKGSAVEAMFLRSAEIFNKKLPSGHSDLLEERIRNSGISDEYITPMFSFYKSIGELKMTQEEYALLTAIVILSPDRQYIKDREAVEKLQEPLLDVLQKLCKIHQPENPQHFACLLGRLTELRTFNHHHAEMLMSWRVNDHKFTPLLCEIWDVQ

Q: With Nc1ccnc(=O)[nH]1 as the compound, how does the Potency [1] read?
A: inactive

Q: What about the activity change, negative = inhibition [2] of the same compound?
A: inconclusive: -11.6%

Q: What about the Potency [3] of the same compound?
A: inconclusive: 2.17 µM [cytotoxic, full curve, poor fit]

Q: And the Potency [4]?
A: inactive

Q: For NC(=S)Nc1cccc2ccccc12, which activation [1] is on record?
A: inactive: -5.35% [at 8.36 µM]

Q: What about the activity change, negative = inhibition [2] of the same compound?
A: inactive: -15.5% [at 6.95 µM]

Q: What about the activation [4] of the same compound?
A: inactive: -4.57% [at 6.97 µM]

Q: With N#CCC(=O)O as the compound, how does the activation [1] read?
A: inconclusive: 15.1%

Q: And the Potency [5]?
A: inconclusive: 21.9 µM [rising, partial curve, poor fit]

Q: What about the Potency [4] of the same compound?
A: inconclusive: 61.7 µM [activator, partial curve, poor fit]

Q: For O=S(=O)(O)CCN1CCN(CCO)CC1, which Potency [1] is on record?
A: inconclusive: 23.9 µM [rising, partial curve, poor fit]

Q: And the Potency [6]?
A: inconclusive: 12.1 µM [falling, full curve, poor fit]

Q: And the Potency [4]?
A: inactive

Q: With CC(C)=CC(=O)O as the compound, how does the Potency [1] read?
A: inactive

Q: And the activation [5]?
A: inconclusive: 9.83%

Q: What about the Potency [2] of the same compound?
A: inactive

Q: What about the Potency [4] of the same compound?
A: inactive

Q: What does the source list for CCOC(=O)/C=C/c1ccccc1?
A: activation [1]: inconclusive: 12%; Potency [5]: inactive; Potency [3]: inconclusive: 5.49 µM [cytotoxic, single point]; Potency [4]: inactive

Q: For COc1cc(N)ccc1C, which activation [1] is on record?
A: inconclusive: 26.6%

Q: What about the Potency [7] of the same compound?
A: inactive

Q: And the Potency [8]?
A: inconclusive: 21.7 µM [cytotoxic, single point]

Q: What about the Potency [4] of the same compound?
A: inactive

Q: With CCOC(=O)CC(CC(=O)OCC)(OC(C)=O)C(=O)OCC as the compound, how does the Potency [1] read?
A: inactive

Q: And the activation [7]?
A: inconclusive: -2.08%

Q: What about the Potency [2] of the same compound?
A: inactive

Q: And the Potency [4]?
A: inactive

Q: What does the source list for CC(C)(C)c1cc(CCC(=O)NN)cc(C(C)(C)C)c1O?
A: Potency [1]: inactive; Potency [3]: inconclusive: 21.9 µM [rising, full curve]; Potency [4]: inactive

Q: With CN1CCC[C@@H]1Cc1c[nH]c2ccc(CCS(=O)(=O)c3ccccc3)cc12 as the compound, how does the Potency [1] read?
A: inactive

Q: What about the Potency [2] of the same compound?
A: inactive

Q: What about the Potency [8] of the same compound?
A: inactive

Q: What about the Potency [4] of the same compound?
A: inconclusive: 26.8 µM [activator, partial curve, poor fit]

Q: For CC1=CC(=O)/C(=C(/C)O)C(=O)O1, which Potency [1] is on record?
A: inactive

Q: What about the Potency [2] of the same compound?
A: inconclusive: 15.5 µM [activator, partial curve, poor fit]

Q: What about the Potency [4] of the same compound?
A: inactive

Q: Which results are given for CCCCCCCCCCCCOCCO?
A: Potency [1]: inactive; Potency [9]: inactive; Potency [4]: inconclusive: 54.9 µM [falling, partial curve, poor fit]

Q: With CCN1CCCC1CN (stereo not drawn) as the compound, how does the activation [1] read?
A: inconclusive: -1.07%

Q: What about the Potency [9] of the same compound?
A: inconclusive: 11.9 µM [rising, full curve]

Q: What about the Potency [6] of the same compound?
A: inactive

Q: What about the Potency [5] of the same compound?
A: inactive

Q: And the Potency [2]?
A: inactive

Q: What about the Potency [4] of the same compound?
A: inactive

Q: For CCCCCCCCCCCCCCCC/C=C/C1CC(=O)OC1=O (stereo not drawn), which Potency [1] is on record?
A: inactive

Q: And the activity change, negative = inhibition [2]?
A: inconclusive: 11.9%

Q: What about the Potency [4] of the same compound?
A: active: 16.9 µM

Q: For O=C(O)c1ccco1, which Potency [1] is on record?
A: inactive

Q: What about the Potency [2] of the same compound?
A: inactive

Q: What about the Potency [3] of the same compound?
A: inconclusive: 0.0039 µM [rising, full curve, poor fit]

Q: And the Potency [4]?
A: inactive

Q: With C1=COCCC1 as the compound, how does the Potency [1] read?
A: inactive

Q: What about the Potency [3] of the same compound?
A: inactive

Q: And the Potency [4]?
A: inactive

Q: Which Potency [1] does the source give for CCCCC[Si](OCC)(OCC)OCC here?
A: inactive

Q: And the Potency [9]?
A: inconclusive: 0.0049 µM [rising, full curve, poor fit]

Q: And the Potency [3]?
A: inactive

Q: And the Potency [4]?
A: inactive

Q: Which Potency [1] does the source give for O=C1Nc2ccc([N+](=O)[O-])cc2C1=O here?
A: inconclusive: 68.5 µM [rising, single point]

Q: And the Potency [9]?
A: inactive

Q: What about the Potency [3] of the same compound?
A: inconclusive: 5.48 µM [cytotoxic, single point]

Q: What about the Potency [4] of the same compound?
A: inconclusive: 21.8 µM [activator, partial curve]

Q: Which results are given for CCOCCOCCOCCO?
A: Potency [1]: inactive; Potency [3]: inactive; Potency [4]: inactive

Q: What does the source list for CC(C)S?
A: activation [1]: inconclusive: 27.6% [at 94.8 µM]; activity change, negative = inhibition [2]: inconclusive: 8.93% [at 78.8 µM]; Potency [4]: inactive

Q: Which results are given for CC(C)NCC(O)c1cc(O)cc(O)c1 (stereo not drawn)?
A: activation [1]: inconclusive: -8.2%; Potency [2]: inactive; activity change, negative = cytotoxicity [8]: inconclusive: -18.3% [cytotoxic]; Potency [4]: inconclusive: 2.13 µM [activator, full curve, poor fit]

Q: Which results are given for CC1CCc2c(N3CCC(O)CC3)c(F)cc3c(=O)c(C(=O)O)cn1c23 (stereo not drawn)?
A: activation [1]: inconclusive: 7.77%; activation [5]: inconclusive: 0.955%; Potency [2]: inactive; Potency [4]: inactive

Q: Which Potency [1] does the source give for C/C=C1\[C@H]2C=C(C)C[C@]1(N)c1ccc(=O)[nH]c1C2 here?
A: inactive

Q: What about the Potency [6] of the same compound?
A: inactive

Q: What about the Potency [4] of the same compound?
A: inactive

Q: With CCC(CO)CO as the compound, how does the Potency [1] read?
A: inactive

Q: And the activity change, negative = inhibition [2]?
A: inconclusive: 24.6%

Q: What about the Potency [4] of the same compound?
A: inactive

Q: Which Potency [1] does the source give for CCCCCCCCCCCCCCCCC(=O)O here?
A: inactive

Q: And the activity change, negative = inhibition [2]?
A: inconclusive: 12.2%

Q: What about the Potency [3] of the same compound?
A: inactive

Q: What about the activation [4] of the same compound?
A: inconclusive: -9.41% [at 35.3 µM]

Q: With CCCCOCC(C)O (stereo not drawn) as the compound, how does the activation [1] read?
A: inconclusive: 20.1% [at 94.8 µM]

Q: And the Potency [2]?
A: inconclusive: 22.3 µM [fluorescent, single point]

Q: What about the Potency [4] of the same compound?
A: inactive
